The text below walks through data of PubChem BioAssay AID1347073 (National Center for Advancing Translational Sciences (NCATS), 2019).

The campaign covered roughly 45,000 compounds. About 200 (0.44%) were called active. Roughly 7% stayed inconclusive and do not appear here. The call rests on the fitted dose curve; in most records, active means well fitted activation curve with a large enough effect; inconclusive means small, poorly fitted or top-dose-only effect; inactive means no such curve, though single readings can be large or run the other way. This is one part of the list.

The assay is described as follows: qHTS of TDP-43 Inhibitors: NCGC Sytravon Library Screen. Further: 0% is about no effect; nearly all actives have a fitted effect of over 55% in size. The following applies: yeast TDP-43 toxicity rescue, BacTiter-Glo growth, 24 h; series mostly up to 46.1 µM; growth rescue (activation): at the top concentration. The procedure, abridged: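 TDP-43-expressing yeast, pregrown in raffinose, seeded at OD600 0.02 in galactose medium with compound for 24 hr at 30 deg C. Growth read by BacTiter-Glo luminescence, so rescue of toxicity appears as activation.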
Consider `NC(=O)NC(Cc1ccccc1)C(=O)N1CCN(S(=O)(=O)c2ccc(Cl)cc2)CC1` (configuration not stated), for which the “growth rescue (activation)” value is inactive: 6.16%.

Regarding `CCOc1ncccc1C(=O)Nc1ccc(S(=O)(=O)Nc2nccs2)cc1`, the “growth rescue (activation)” value is inactive: 28.3%. As for `COc1cccc(CNC(=S)Nc2ccc3c(c2)c(=O)n(C)n3Cc2ccc(F)cc2)c1`, the figure is inactive: -5.08%; as for `CCCCn1c(N)c(N(CC)C(=O)c2ccccc2C)c(=O)[nH]c1=O`, inactive: 10.5%. As for `COc1ccccc1N(CN1C(=O)c2ccccc2C1=O)C(=O)c1cccc(C)c1`, the figure is inactive: 3.49%; as for `CN(C)/C=C1\C(=O)N(C)N=C1C(F)(F)F`, inactive: 5.29%.

`COc1ccc(NC(=O)C2CCCN2C(=O)NC2CCCCC2)c(OC)c1` (configuration not stated): the “growth rescue (activation)” value is inactive: 10.1%. For `Cc1cccc(NC(=O)N2C3CCCC2CC(NC(=O)C2CC2)C3)c1` (configuration not stated), the “growth rescue (activation)” value is inactive: -22%. Under `Cc1ccc(OC(C)C(=O)Nc2ccc(C)c(S(=O)(=O)Nc3ccc(C)cc3C)c2)cc1` (configuration not stated) stands inactive: -4.95%; under `CC(=C\c1ccccc1)/C=C1/SC(=O)N(CCCC(=O)Nc2ccc(C(=O)O)cc2)C1=O`, inactive: 1.67%; under `COc1ccc(N(CC(=O)Nc2nccs2)S(=O)(=O)c2c(C)[nH]c(=O)[nH]c2=O)cc1`, inactive: -3.73%. `Cc1ccc(C2N(c3ccc(Cl)cc3)C(=O)N3CCCN23)cc1` (configuration not stated): the “growth rescue (activation)” value is inactive: -2.19%. As for `Cc1ccc(CN2CCN(/N=C/c3cc(Br)cc(Br)c3O)CC2)cc1`, the figure is inactive: -25.6%; as for `O=C(NNS(=O)(=O)c1ccc([N+](=O)[O-])cc1)c1ccc([N+](=O)[O-])cc1`, inactive: -16.1%; as for `Cc1cccc(CN2C(=O)CSc3ccc(C(=O)NC4CC4)cc32)c1`, inactive: 8.77%.

Regarding `O=S(=O)(c1cccc(-c2nnc(SC(F)F)n2-c2ccccc2)c1)N1CCCCC1`, the “growth rescue (activation)” value was inactive: -11.1%. As for `CCc1ccc2c(c1)C(NC(C)=O)C(=O)N2CCN1CCOCC1` (configuration not stated), the figure is inactive: 5.32%. Under `COc1ccc(CCNC(=O)c2c(Cl)ccc(Cl)c2OC)cc1OC` stands inactive: 22.3%; under `O=C(/C=C/c1ccc(Cl)cc1)NC(=S)Nc1ccc(C(=O)O)cc1`, inactive: -1.94%. Under `COC(=O)C1=C(C(=O)c2ccc(C)cc2)C(c2ccc(O)c(OC)c2)n2nnnc2N1` (configuration not stated) stands inactive: 26.5%; under `O=C(NCc1cccnc1)c1ccccc1NS(=O)(=O)c1ccc(F)cc1`, inactive: 5.06%; under `Cc1ccc(CN2C(=O)C(O)(CC(=O)c3ccc(C)cc3)c3ccccc32)cc1` (configuration not stated), inactive: 2.26%. As for `Cc1cc(C(=O)NCc2ccc(S(N)(=O)=O)cc2)ccc1[N+](=O)[O-]`, the “growth rescue (activation)” value was inactive: 11.3%. In the case of `CCN(CC)CCn1c2ccccc2c2cnc(N=CN(C)C)c(C#N)c21`, the “growth rescue (activation)” value is inactive: 13.8%. Under `COc1ccc(Br)cc1/C=C(\C(=O)O)c1ccc(S(=O)(=O)N2CCCC2)s1` stands inactive: 14.1%.

On to `CCCCN(C=O)c1c(CC)nc2c(OCc3ccc(Cl)cc3Cl)cccn12`, for which the “growth rescue (activation)” value was inactive: 0.0455%. As for `O=C(NCCc1ccc(Cl)cc1)c1n[nH]c2ccccc12`, the figure is inactive: 13.3%.
